# In the RNAGym collection of RNA variant scans (doi:10.7554/elife.90254):
# Read counts are not given, so values of variants with three or more changes are uncertain.
# B1: LINE1-mini (parent)
# chain: GGCAGAGCUCAACACAGCGUGGCAAAGUGGCUGUGGCUAGACUGCC
# Variants of: B1
# Test: self-cleavage, relative activity (ratio to wild type); higher = more cleavage; in vitro, sequencing; the parent is a self-cleaving ribozyme
row,Variant,self-cleavage
1,C8U U9G C15G G27A,0.04
2,C8U A16U G35A,0.3
3,C8U U9G A39G,0.04
4,C8U A12C A16C G36A,0.04
5,C8U G35A C42G,0.24
6,C8U A14U G17U G22U A41C,0.08
7,C8U U9C U34A C37A,0.07
8,C8U A12G G21U G40U G44C,0.12
9,C8U U9A C10A G27U,0.02
10,C8U C15A A16G C18U G44C,0.02
11,C8U A12G C15A C23A C46U,0.06
12,C8U A12G G29A,0.04
13,C8U G21A C31U,0.3
14,C8U C13G A25G,0.2
15,C8U G22U G27A,0.49
16,C8U A14G U32A G33C,0.2
17,C8U A14C U28A G30U,0.12
18,C8U C10U A39C,0.08
19,C8U G19A U34A,0.03
20,C8U G17U A25C,0.04
21,C8U G19A A26C C37A,0.03

row,Variant,self-cleavage
1,C8U C13G C15A G35A,0.13
2,C8U C10U A16U A26G,0.03
3,C8U C10A A24U,0.04
4,C8U C10A C46A,0.03
5,C8U G29U G35A,1.14
6,C8U C18A C45A,0.29
7,C8U U20G C42A,0.09
8,C8U C15U G29U G35U A41C,0.09
9,C8U C13A U20G G21C C23A,0.05
10,C8U U9A A11G G40U,0.03
11,C8U G19A A24U G27C C31G,0.08
12,C8U A16C G17U A41U,0.18
13,C8U C10G C13U C23A G29A C42A,0.01
14,C8U A14G G22C U28G G33C,0.03
15,C8U C10U A25G,0.01
16,C8U A16G G27A G29C C46A,0.09
17,C8U A26G G27A G35C A41G,0.09
18,C8U G17C A26U U32A G40C C42A,0.06
19,C8U A26U G29C,0.03
20,C8U C18U A39U,0.05
21,C8U C18A G36A C37G,0.27

row,Variant,self-cleavage
1,C8U G19C G36C,0.06
2,C8U G21C C37A,0.07
3,C8U A12G G21U,0.01
4,C8U U20G A25C,0.09
5,C8U G29U G30U A39U,0.15
6,C8U C15U G19C C42A,0.02
7,C8U A26U A39U,0.06
8,C8U C10A A11G A16G G17A G19A A41C C42G,0.01
9,C8U G21A C23U A25G A26U G35U,0.12
10,C8U A14G U20A A39G,0.01
11,C8U C15U U20A G22C,1.05
12,C8U A12C C46G,0.06
13,C8U C10A A39G,0.11
14,C8U C15A A26C G27A U34G,0.04
15,C8U C18A C46A,0.06
16,C8U C10A G22U A26U G29U C31U,0.03
17,C8U G29U G44U,0.12
18,C8U C10A C23A,0.05
19,C8U G19A G27C G35C,0.01
20,C8U U9C A26U G33U A41C,0.03
21,C8U G19C G21A C45A,0.07

row,Variant,self-cleavage
1,C8U G35A A39C,0.12
2,C8U C23U U38G,0.01
3,C8U U9A U38A,0.15
4,C8U C23U U32C G35U C37U A39U,0.24
5,C8U A12C C15A,0.03
6,C8U G27A C46G,0.27
7,C8U U9G C10G G33A C46A,0.03
8,C8U G19U G35C C46A,0.1
9,C8U G30A U34A G36A,0.01
10,C8U G17A G19A U20G A41G,0.02
11,C8U A14U G17A G19A G29A C31A,0.08
12,C8U C10U A14U C23A G40C,0.01
13,C8U C13G G19C U34A,0.05
14,C8U A12G C13U C15G C18U G19C G29U,0.07
15,C8U C37U U38C,0.14
16,C8U U9A C15U G19U G22A U34A G35U U43A G44U,0.14
17,C8U C18G G30A G35A,0.16
18,C8U C10G C18A U20C G29A A41U C42G,0
19,C8U C10A G29U,0.02
20,C8U C13U G40A C45G,0.19
